Assay results published in PubChem BioAssay (NCI).
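The compound was tested at five concentrations on cells cultured in 96-well plates, with a 48-hour exposure period. Here, GI50 denotes the concentration required for 50% inhibition of growth. The concentration for full growth arrest is given as TGI.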 Peptide text beside a SMILES is read from it.

test system: NCI-H322M lung; assay: NCI anticancer screen, dose series, 48 h

Compound | TGI | GI50
CC1=C(C(=O)NCc2ccccc2)C(c2ccco2)C(C(=O)NCc2ccccc2)=C(C)N1 | > 100 µM | 
Cc1ccsc1/C=N/Nc1cc(C)c2ccccc2n1 | 48.9 µM | 
Cc1ccc([N+]2=NC(c3ccccc3)=NN(c3ccccc3)C2)cc1 | > 100 µM | 
Clc1ncnc2c1nc(C#Cc1ccccc1)n2C1CCCCO1 (configuration not stated) | 3.24 µM | 
CCSc1nc(N)c2cnn(CC)c2n1 | 56 µM | 5.45 µM
CCN(CCC#N)C(=O)Nc1ccccc1 | > 100 µM | 
NC(=O)c1nc(-c2ccc(Cl)c(Cl)c2)nc2ccccc12 | > 100 µM | 
CCOC(=O)C1=C(C)N(Cc2ccccc2)C2(O)C(OC)CC(=O)C3C(=O)N(c4ccccc4)C(=O)C132 (configuration not stated) | 36.6 µM | 
O=[N+]([O-])c1ccc(Nc2cccc3c2[nH]c2c(-c4ccccc4)nccc23)c([N+](=O)[O-])c1 | > 100 µM | 
CC1CN=C(c2ccc(CN3CCC(CCCC4CCN(Cc5ccc(C6=NCC(C)N6)cc5)CC4)CC3)cc2)N1 (configuration not stated) | 89 µM | 
O/N=C1\C(=C\c2ccc3c(c2)OCCO3)CCCC1C(NO)c1ccc2c(c1)OCCO2 (configuration not stated) | 35.2 µM | 
Nc1c(C(=O)O)nnc2cc(Cl)ccc12 | > 100 µM | 
C=Cc1cc(OC)c2c(c1)c(=O)oc1c2cc(OC)c2c(O)ccc(C3OC(C(C)O)C(O)C3O)c21 (configuration not stated) | 0.0687 µM | 0.0147 µM
C#C[C@@H](CCCC)OC(=O)N[C@H](C)c1ccccc1 | > 100 µM | 
Cn1c(-c2c(C3=CC(=O)N(c4ccccc4)C3=O)c3ccccc3n2C)cc2ccccc21 | > 100 µM | 
Cn1c2ccccc2c2c3c(c4c5ccccc5n(C)c4c21)C(=O)N(c1ccccc1)C3=O | > 100 µM | 
Cc1nc(-n2nc(-c3ccccc3)cc2-c2ccccc2)sc1C(=O)CC(=O)C(=O)Nc1ccc(O)cc1 | > 100 µM | 
OC(CCl)CN1CC[N+]2(CC1)CC[N+]1(CCN(CC(O)CCl)CC1)CC2 (configuration not stated) | > 50 µM | 
CS(=O)(=O)CCNCc1ccoc1-c1ccc2ncnc(Nc3ccc(OCc4ccccc4)cc3)c2c1 | > 25 µM | 5 µM
CC(C)N1[C@@H]2CCCC[C@H]2N(C(C)C)[P+]1=O | > 100 µM | 
CC1=C2C3OC(=O)C(C)C3C(O)C[C@@]2(C)C(=O)CC1 (some centres not stated) | > 100 µM | 
Cc1ccc2c(=O)cc(-c3cccc(F)c3)[nH]c2n1 | > 100 µM | 
COc1ccc(S(=O)(=O)Nc2cc(Sc3cccc4cccnc34)c(O)c3ccccc23)cc1 | 16.2 µM | 3.41 µM
Cc1cn2cc(-c3ccc4c(c3)CC(=O)N4)nc2s1 | > 100 µM | > 100 µM
N#CNC1=NCCC(=O)N1CCc1c[nH]c2ccccc12 | > 100 µM | 
Oc1ccc(O)c(-n2cccn2)c1-n1cccn1 | > 100 µM | 

Compound | TGI | GI50
CCOc1ccccc1N=Cc1c2ccccc2cc2ccccc12 | > 77.7 µM | 
CC(C)(C)CC(C)(C)NCC(O)COc1ccc(C(C)(C)c2ccc(OCC(O)CNC(C)(C)CC(C)(C)C)cc2)cc1 (configuration not stated) | 2.73 µM | 
C[C@H]1CCC2C(OC(=O)[C@@H]2CN(C)C)[C@]2(C)C(=O)C=CC12O (some centres not stated) | 39.7 µM | 
CCOC(=O)N(O)c1ccc(/C=C/c2ccccc2)cc1 | 57.8 µM | 11.4 µM
C[C@H]1CC[C@@H]2[C@@H](C)[C@H]3[C@H](C[C@H]4[C@@H]5CC=C6C[C@@H](O)CC[C@]6(C)[C@H]5CC[C@]34C)N2C1 | > 100 µM | 
O=C(CCc1cc(-c2ccc(F)cc2)n[nH]1)N(Cc1ccccc1)Cc1ccccc1 | > 100 µM | 
CC[C@@H](C(=O)[C@@H](C)[C@@H](O)[C@H](C)[C@@H]1O[C@@H]([C@@H](CC)C(=O)O)CC[C@@H]1C)[C@H]1O[C@]2(C=C[C@@H](O)[C@]3(CC[C@@](C)([C@H]4CC[C@](O)(CC)[C@H](C)O4)O3)O2)[C@H](C)C[C@@H]1C | 17.9 µM | 1.92 µM
CNC(=O)C1OC(n2cnc3c(NCc4cccc(I)c4)nc(Cl)nc32)C(O)C1O (configuration not stated) | 30.6 µM | 
O=C(NNc1nc(-c2ccccc2)cs1)Nc1ccccc1 | 64.7 µM | 
CCN1CCC(O)(/C=C/c2ccccc2)C(C(=O)/C=C/c2ccccc2)C1 (configuration not stated) | 17.9 µM | 
N=C(N)c1ccc(-c2ccc(-c3ccc(Cl)cc3Cl)s2)nc1 | 3.12 µM | 1.74 µM
O=c1onc(Nc2ccccc2)n1-c1ccccc1 | > 100 µM | 
C=C(CN1CCN(c2ccc(F)c(Cl)c2)CC1)c1ccc(C(=O)Nc2ccccc2N)cc1 | > 100 µM | 17.8 µM
C=CCO[C@H]1CC[C@@]2(C)C(CC[C@]3(C)C2CC=C2[C@@H]4[C@@H](C)C(C)CC[C@]4(C(=O)O)CCC23C)C1(C)C (some centres not stated) | 31.4 µM | 
CCOC(=O)C(=O)Nc1nc2ccc(C)cc2s1 | > 100 µM | 
CSCC[C@H](NC(=O)[C@@H](N)CC(N)=O)C(=O)N[C@@H](Cc1c[nH]c2ccccc12)C(=O)N[C@@H](CCC(N)=O)C(=O)N[C@@H](CCC(=O)O)C(=O)N[C@H](C(=O)NCC(=O)N[C@@H](CCCCN)C(=O)N[C@H](C)C(=O)O)C(C)C (HELM PEPTIDE1{N.M.W.Q.E.V.G.K.[dA]}$$$$V2.0) | > 100 µM | 
CCOC(=O)CC(C)C1(C=O)CCCCC1=O (configuration not stated) | > 100 µM | 
CC(C)=C=CP(=O)(O)c1ccccc1 | > 100 µM | 
Cc1cc(O)c(C(C)C)cc1C(=S)Nc1ccc(Cl)cc1 | 29.5 µM | 
O=C(N/N=C/c1ccc(N(CCCl)CCCl)cc1)c1ccc(C(=O)N/N=C/c2ccc(N(CCCl)CCCl)cc2)cc1 | > 100 µM | 34 µM
O=C(O)c1cccc(S(=O)(=O)NN2C(=O)CSC2c2c(O)ccc3ccccc23)c1 (configuration not stated) | 76.5 µM | 
NC1=Nc2ccccc2Sc2ccccc21 | > 100 µM | 
COc1ccc(C2C3=C(COC3=O)N(CCO)c3cc4c(cc32)CCC4)cc1 (configuration not stated) | > 50 µM | 11 µM
CC(CC(=O)Nc1ccc(NC(=O)CC(C)N=NC(N)=O)cc1)N=NC(N)=O (configuration not stated) | > 100 µM | 
O=NNc1c[nH]c(=O)[nH]c1=O | > 100 µM | 
O=C(O)C1CSC2(CCCN(Cc3ccccc3)C2)N1 (configuration not stated) | > 100 µM | 

Compound | TGI | GI50
Cc1ccc(S(=O)(=O)N/N=C\c2c3ccccc3[n+](C)c3ccccc23)cc1 | > 100 µM | 
Cn1cccc1-c1cc(-c2ccccc2)nc(N)c1C#N | > 100 µM | > 100 µM
COc1ccc(C2=NN(c3nsc4ccccc34)C(=O)CC2)cc1 | > 100 µM | 
Cc1ccc(S(=O)(=O)NC(=O)NC(CC(=O)O)C(=O)O)cc1 (configuration not stated) | > 100 µM | 
O=[N+]([O-])c1ccc2nc(-c3ccc(Cl)cc3)[nH]c2c1 | 91.8 µM | 
CCOc1ccccc1NC(=O)C1=C(C)NC(C)=C(C(=O)Nc2ccccc2OCC)C1c1cccc([N+](=O)[O-])c1 | > 100 µM | 
O=C1C(=Cc2ccc(F)cc2)C(=O)c2ccccc21 | > 100 µM | 
O=C1Nc2ccccc2SC1=C(C(=O)c1ccccc1)C(=O)c1ccccc1 | > 100 µM | 
CC/C(C)=C1\CCC(CN(C)C)C1=O (configuration not stated) | > 100 µM | 
COc1cc2nc(-c3cccs3)nc(N3C(c4cc(OC)c(OC)c(OC)c4)=NNC(=O)c4ccccc43)c2cc1OC | 73.2 µM | 
CCOP(=O)(Cc1nc(C#N)c(N)o1)OCC | > 100 µM | 
O=S(=O)(O)c1cc(N=[N+]([O-])c2ccc(N=Nc3ccccc3)cc2S(=O)(=O)O)ccc1/C=C/c1ccc(N=[N+]([O-])c2ccc(N=Nc3ccccc3)cc2S(=O)(=O)O)cc1S(=O)(=O)O | > 100 µM | 
c1ccc(-c2cc3n4c(-c5ccccc5)nn(-c5ccccc5)c4cnc-3n2)cc1 | > 50 µM | > 50 µM
CCOC(=O)C1CCCN1C(=O)c1ccccc1Cl (configuration not stated) | > 100 µM | 
COC(=O)C(C)Oc1ccc(O)cc1 (configuration not stated) | > 100 µM | 
Cc1nc(-n2nc(-c3ccccc3)cc2-c2ccccc2)sc1C(=O)/C=C/c1cccc([N+](=O)[O-])c1 | 63.6 µM | 
Cc1cc2nc(-c3ccc(O)c(O)c3)n(Cc3ccc(O)c(O)c3)c2cc1C | > 100 µM | 30.4 µM
C=CCCC(=O)CC(=O)OCc1ccccc1 | > 100 µM | 
COc1ccc(/C=C2/CSC/C(=C/c3ccc(OC)c(OC)c3)C2=O)cc1OC | 56.5 µM | 
N=C1C=C(N)C(=O)c2ccccc21 | 3.17 µM | 1.74 µM
O=C1C=CC(=O)c2c(O)c(N(CCCl)CCCl)c(Cl)c(O)c21 | > 10 µM | 
CN(C)CCOc1ccc2c(c1)C(=O)/C(=C\c1ncc([N+](=O)[O-])n1C)C2 | 1.89 µM | 0.476 µM
c1ccc(OCc2nnc(CCCCCCCCc3nnc(COc4ccccc4)o3)o2)cc1 | > 100 µM | 
O=c1[nH]c2ccc(C(F)(F)F)cc2nc1C(F)(F)F | > 100 µM | 
